# According to PubChem BioAssay AID504466 (National Center for Advancing Translational Sciences (NCATS), 2011):
# The campaign covered roughly 330,000 compounds. About 4,200 (1.3%) were called active. The shares of active, inactive and inconclusive entries below differ from those in the screen. The call rests on the fitted dose curve; in most records, active means well fitted activation curve with a large enough effect; inconclusive means small, poorly fitted or top-dose-only effect; inactive means no such curve, though single readings can be large or run the other way. Where the call is inconclusive, the potency comes from a doubtful curve fit.
# Experiment: qHTS screen for small molecules that induce genotoxicity in human embryonic kidney (HEK293T) cells expressing luciferase-tagged ELG1; further: nearly all actives have a fitted effect of over 60% in size
# Conditions: HEK293T ELG1-luciferase reporter, luminescence, 16 h; series mostly up to 46 µM
# Method in brief: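 Screening used a luciferase reporter fused to human ELG1 in HEK293T cells. Luminescence was read on a CCD plate imager after 16 hr exposure and 30 min ONE-Glo incubation.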
# Potency means the concentration at half of the fitted maximal effect; tags describe the fitted curve by direction and shape.
row,Compound,Potency
1,COc1ccc(CNC(=O)Cn2nnc(-c3ccc(NC(=O)C4CCCCC4)cc3)n2)cc1,"inconclusive: 5.8 µM [activator, partial curve, poor fit]"
2,COc1cc(C(=O)NCC(=O)N/N=C/c2c(C)[nH]c3ccccc23)cc(OC)c1OC,inactive
3,COc1cccc(-c2nc3ccc(C(=O)N4CCCC(O)C4)cc3o2)c1 (configuration not stated),"inconclusive: 2.59 µM [activator, full curve]"
4,CNS(=O)(=O)c1ccc(NC(=O)Nc2ccc3c(c2)OCO3)cc1,"inconclusive: 4.61 µM [activator, partial curve]"
5,CCC(=O)n1nc(-c2ccc(Cl)cc2)nc1SC,"inconclusive: 16.4 µM [activator, partial curve, poor fit]"
6,CCOC(=O)c1cnc2c(-c3ccccc3)cnn2c1N,"inconclusive: 1.46 µM [activator, full curve]"
7,Cc1ccc(NC(=O)CCC(=O)c2cccs2)c(Br)c1,"inconclusive: 18.3 µM [activator, single point]"
8,COc1cccc(-c2nn(-c3ccccc3)cc2C(=O)O)c1,inactive
9,Cc1cc(NC(=O)c2ccc3c(c2)C(=O)N(C(C)(C)C)C3=O)no1,"inconclusive: 18.3 µM [activator, partial curve, poor fit]"
10,Cc1ccc(C(=O)Nc2ccc3c(c2)ncn3C)cc1,"inconclusive: 9.2 µM [activator, partial curve]"
11,CCN(CC)c1ccc(NC(=O)c2ccccc2OCC(=O)OC)cc1,inactive
12,O=c1c2ccccc2ncn1CCOc1ccccc1[N+](=O)[O-],"inconclusive: 13 µM [activator, partial curve]"
13,C/C(=N/NC(=O)c1cc2ccccc2cc1O)c1ccco1,"inconclusive: 3.26 µM [activator, full curve]"
14,O=C(NCC1CCCO1)c1c(O)c2cccc3c2n(c1=O)CC3 (configuration not stated),"inconclusive: 23.1 µM [activator, partial curve, poor fit]"
15,COc1cccc2c(=O)n(CC(=O)Nc3ccccc3F)ccc12,"inconclusive: 25.9 µM [activator, single point]"
16,COc1ccc(-n2ncc(C(C)NS(=O)(=O)c3ccc(C)s3)c2C)cc1 (configuration not stated),inactive
17,CCCCN(CC)CCCNC(=O)c1cc2c(=O)n(CC)c3ccccc3c2s1,"inconclusive: 6.51 µM [activator, partial curve, poor fit]"
18,CC(=O)c1ccc(NC(=O)CCOc2cc(C)ccc2C)cc1,"inconclusive: 20.6 µM [activator, single point]"
19,Cc1ccc(S(=O)(=O)CCC(=O)Nc2nccs2)cc1,inactive
20,COc1ccc(CNC(=O)C(c2ccco2)N(C(=O)c2ccccn2)c2ccccc2)cc1 (configuration not stated),"inconclusive: 4.11 µM [activator, partial curve]"
21,COc1ccc(OC)c(NC(=O)c2nnn(CCc3ccccc3)c2N)c1,"inconclusive: 23.1 µM [activator, partial curve, poor fit]"
22,COc1ccc(C(=O)Nc2ccc(CN3CCOCC3)cc2)cc1,"inconclusive: 14.1 µM [activator, partial curve, poor fit]"
23,Cc1ccccc1Cn1nc(C)c(NC(=O)c2noc3c2CCCC3)c1C,"inconclusive: 6.51 µM [activator, single point]"
24,Cc1ccc(O)c(C2=NNC(c3ccc(Cl)cc3)C2)c1 (configuration not stated),inactive

row,Compound,Potency
1,C/C(=N\NC(=O)c1nnn(-c2nonc2N)c1-c1ccc2c(c1)OCO2)c1ccc(F)cc1,"inconclusive: 29.1 µM [activator, single point]"
2,COCCn1c(C)cc(C(=O)CN2C(=O)NC3(CCCCCCC3)C2=O)c1C,"inconclusive: 8.2 µM [activator, partial curve]"
3,O=C(Nc1ccc2c(c1)OCCO2)c1ccc(Br)s1,active: 1.46 µM
4,COc1ncccc1-c1nnn(-c2ccc(C)cc2)n1,active: 9.2 µM
5,c1ccc(-n2nnc3c(N4CCOCC4)ncnc32)cc1,"inconclusive: 0.92 µM [activator, full curve]"
6,O=C(CN1C(=O)NC2(CCCc3ccccc32)C1=O)c1ccc(Br)cc1 (configuration not stated),inactive
7,COc1ccc(/C=C/C(=O)NCC(=O)N/N=C(/C)c2ccc(Cl)cc2)cc1,inactive
8,N#C/C(=C\c1ccc[nH]1)C(=O)Nc1ccccc1[N+](=O)[O-],"inconclusive: 11.6 µM [activator, partial curve]"
9,Cc1cccc(N2CCN(C(c3ccncc3)c3nnnn3C(C)(C)C)CC2)c1C (configuration not stated),inactive
10,COc1ccsc1NC(=O)OCc1ccc(Cl)cc1,"inconclusive: 18.3 µM [activator, partial curve, poor fit]"
11,O=C(NCCCn1ccnc1)c1cc(-c2cccnc2)nc2ccc(Br)cc12,inactive
12,CC(=O)c1cccc(NC(=O)Nc2ccc3c(c2)CCC3)c1,inactive
13,CC(=O)Oc1ccc(OC(C)=O)c(SCCCCCN2CCOCC2)c1,"inconclusive: 20.6 µM [activator, partial curve, poor fit]"
14,Cc1cc(N2CCOCC2)ccc1/C=C1/SC(=O)NC1=O,"inconclusive: 29.1 µM [activator, single point]"
15,COc1ccc(N(C(=O)c2ccccc2C)S(=O)(=O)c2cccs2)cc1,"inconclusive: 11.6 µM [activator, partial curve, poor fit]"
16,CC(NS(=O)(=O)c1cccc(C(=O)NCc2ccncc2)c1)c1ccccc1 (configuration not stated),inactive
17,O=C(NCCCn1ccnc1)c1ccc(Br)s1,inactive
18,CS(=O)(=O)Nc1cccc(-c2cnc3ccccc3n2)c1,"inconclusive: 7.3 µM [activator, partial curve]"
19,O=C(Nc1ccc2c(c1)OCCO2)c1ccoc1,"inconclusive: 14.6 µM [activator, partial curve, poor fit]"
20,Cc1ccnc(NC(=O)c2ccc3c(c2)OCO3)c1,"inconclusive: 2.59 µM [activator, partial curve]"
21,Cc1ccccc1C(=O)c1c[nH]c(C(=O)NCCc2ccccn2)c1,inactive
22,CC(=O)C(=Cc1cn(-c2ccccc2)nc1-c1ccccc1)C(C)=O,"inconclusive: 23.1 µM [activator, partial curve, poor fit]"
23,FC(F)(F)c1cnc(-c2cnc(-c3cccnc3)nc2)c(Cl)c1,"inconclusive: 7.08 µM [activator, partial curve]"
24,CC(C)c1ccc(OCc2ccc(C(=O)O)o2)cc1,"inconclusive: 0.184 µM [activator, full curve]"

row,Compound,Potency
1,C/C(=N\NC(=O)c1ccccc1O)c1cccc(NC(=O)c2ccccc2)c1,inactive
2,COc1ccc(/C=C2\Cc3ccccc3C2=O)cc1OC,active: 16.4 µM
3,Cc1ccc2nc(-c3cccc(S(=O)(=O)N(C)C)c3)cn2c1,inactive
4,Fc1cccc(/C=N/Nc2nc3ccccc3[nH]2)c1,"inconclusive: 2.59 µM [activator, full curve]"
5,COc1cc(OC)cc(C(=O)Nc2ccc3nc4n(c(=O)c3c2)CCCCC4)c1,"inconclusive: 3.26 µM [activator, partial curve, poor fit]"
6,O=C(CCCOc1ccccc1)Nc1ccc2c(c1)OCCO2,"inconclusive: 20.6 µM [activator, partial curve]"
7,O=C(CCc1nnc(-c2ccc(-c3ccccc3)cc2)o1)NCCc1ccccn1,"inconclusive: 8.2 µM [activator, partial curve, poor fit]"
8,COC(=O)c1sccc1-c1ccc(C(=O)Nc2cccnc2)o1,inactive
9,CN(C)CCN(C(=O)c1ccc(C(=O)c2ccccc2)cc1)c1nc2cc3c(cc2s1)OCCO3,"inconclusive: 23.1 µM [activator, partial curve, poor fit]"
10,O=C(Cc1cccs1)Nc1ccc(-c2nc3ccccc3[nH]2)cc1,"inconclusive: 5.8 µM [activator, partial curve, poor fit]"
11,Cc1ccc(S(=O)(=O)N2CCN(C(=O)CNC(=O)c3ccc(Br)o3)CC2)cc1,inactive
12,O=C(O)c1ccc(N/N=C/c2cn(Cc3ccccc3F)c3ccccc23)cc1,"inconclusive: 16.4 µM [activator, partial curve]"
13,Cc1ccc2nc(N(CCCN(C)C)C(=O)c3ccc4ncsc4c3)sc2c1,"inconclusive: 18.3 µM [activator, partial curve]"
14,COc1ccccc1NC(=O)c1ccc2c(c1)OCO2,active: 10.3 µM
15,CCOc1ccc(/C=N/NC(=O)Nc2ccccc2)cc1,active: 7.3 µM
16,CCOC(=O)N1CCC(NC(=O)Cn2c3c(c(-c4ccccc4Cl)cc2=O)CCC3)CC1,"inconclusive: 18.4 µM [activator, partial curve, poor fit]"
17,CCOc1ccc(C(=O)Nc2ccc3c(c2)OCCO3)cc1,active: 2.31 µM
18,N#C/C(=C\c1cc2c(cc1Br)OCO2)C(=O)NCC1CCCO1 (configuration not stated),inactive
19,CC1CCN(c2ccc(-c3ccc(NC(=O)C(F)(F)F)cc3)nn2)CC1,active: 0.73 µM
20,CCCn1cnc2c(sc3nc4c(cc32)CSC(C)(C)C4)c1=O,active: 4.61 µM
21,C=C1CCC[C@]2(C)C[C@H]3OC(=O)C(CNCCN(CC)CC)[C@H]3CC12 (some centres not stated),inactive
22,CCSc1nnc(NC(=O)COc2ccccc2[N+](=O)[O-])s1,"inconclusive: 20.6 µM [activator, partial curve]"
23,CSCCC(NC(=O)c1ccco1)C(=O)Nc1ccc(C)cn1 (configuration not stated),"inconclusive: 29.1 µM [activator, single point]"
24,O=C(NCc1ccc(Cl)cc1)C(=O)N/N=C/c1ccc(Br)cc1,"inconclusive: 13 µM [activator, partial curve]"
